In all, about 310,000 compounds went through this assay and about 14,000 (4.5%) showed an effect of 50% or more. The effect is printed as a negative number. The list shows a part of the results.
Target: human ether-à-go-go-related gene (hERG) potassium channel (human, UniProt Q12809)
Experiment: primary screen, population patch clamp on CHO cells stably expressing hERG
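Note: peak tail current of the secondary pulse compared with the same well before compound.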

Sequence of human ether-à-go-go-related gene (hERG) potassium channel (Q12809 whole entry, looked up): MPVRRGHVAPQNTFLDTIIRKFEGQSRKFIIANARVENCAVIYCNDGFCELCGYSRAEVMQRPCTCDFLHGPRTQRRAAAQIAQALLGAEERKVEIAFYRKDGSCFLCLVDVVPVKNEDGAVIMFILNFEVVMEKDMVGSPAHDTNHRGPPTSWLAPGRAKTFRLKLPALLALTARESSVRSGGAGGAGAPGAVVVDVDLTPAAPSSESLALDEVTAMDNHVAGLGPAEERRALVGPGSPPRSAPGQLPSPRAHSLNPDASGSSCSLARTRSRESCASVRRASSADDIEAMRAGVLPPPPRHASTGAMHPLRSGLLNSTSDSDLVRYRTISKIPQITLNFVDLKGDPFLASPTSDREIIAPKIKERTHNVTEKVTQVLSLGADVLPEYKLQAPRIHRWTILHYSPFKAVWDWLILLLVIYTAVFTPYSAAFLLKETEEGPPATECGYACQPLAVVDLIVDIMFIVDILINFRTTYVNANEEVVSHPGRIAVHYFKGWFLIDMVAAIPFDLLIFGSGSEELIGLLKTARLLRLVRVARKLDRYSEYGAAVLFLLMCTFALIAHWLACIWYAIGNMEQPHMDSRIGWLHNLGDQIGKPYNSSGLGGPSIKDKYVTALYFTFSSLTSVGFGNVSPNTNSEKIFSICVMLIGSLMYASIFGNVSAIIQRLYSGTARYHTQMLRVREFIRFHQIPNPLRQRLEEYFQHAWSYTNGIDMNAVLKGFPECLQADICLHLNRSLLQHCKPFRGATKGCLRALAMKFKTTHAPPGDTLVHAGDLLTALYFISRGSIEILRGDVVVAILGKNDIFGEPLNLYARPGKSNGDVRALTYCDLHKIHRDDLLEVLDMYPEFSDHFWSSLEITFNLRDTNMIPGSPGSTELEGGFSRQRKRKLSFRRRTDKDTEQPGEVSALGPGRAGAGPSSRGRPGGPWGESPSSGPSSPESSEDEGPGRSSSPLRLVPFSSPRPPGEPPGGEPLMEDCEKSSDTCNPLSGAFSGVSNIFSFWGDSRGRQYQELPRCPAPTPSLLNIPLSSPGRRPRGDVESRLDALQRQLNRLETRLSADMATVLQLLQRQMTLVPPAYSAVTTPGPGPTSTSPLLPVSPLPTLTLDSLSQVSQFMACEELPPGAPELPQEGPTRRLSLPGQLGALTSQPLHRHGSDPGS

| Compound | hERG current change (%, negative = inhibition) at 10uM [%] |
| --- | --- |
| O=C1CC(Sc2ncccc2C(=O)O)C(=O)N1 (stereo not shown) | 6.62 |
| O=C(CCCCCN1C(=O)c2cccc3cccc(c23)C1=O)NCc1ccco1 | 13.2 |
| CC(C(=O)Nc1ccc(C#N)cc1)N(C)CC(=O)Nc1ccccc1Br (stereo not shown) | -17 |
| Cn1c(=O)c2c(nc(OCc3cccnc3)n2Cc2ccccc2)n(C)c1=O | -32.8 |
| C=CCn1c(SCc2ccccc2Cl)nnc1-c1sc2nc(C)cc(C)c2c1N | 13.2 |
| CCO[C@H]1OC(C(N)=O)=C[C@@H](C2CCCCC2)[C@@H]1CCCO | 9.79 |
| C[N+]1(C)CCOC(O)(c2ccc(-c3ccc(C4(O)C[N+](C)(C)CCO4)cc3)cc2)C1.[Br-] (stereo not shown) | 12 |
| N#CCCN(Cc1ccccc1)C(=O)Nc1ccc2c(c1)CCO2 | 6.37 |
| Cc1ccc(C2c3c(-c4ccccc4O)n[nH]c3C(=O)N2Cc2ccncc2)cc1 (stereo not shown) | 10.8 |
| COc1ccc(N(CC(=O)O)S(=O)(=O)c2ccc(C)cc2)cc1Cl | 16.3 |
| Cc1ccccc1C(=O)OCc1nnc(-c2ccc(Cl)cc2)o1 | -5.09 |
| CCN1C(=O)c2cccc3c(S(=O)(=O)NCC4CCCO4)ccc1c23 (stereo not shown) | 1.95 |
| CCCN1CCC(=NNc2ccc(S(=O)(=O)N(CC)CC)cc2[N+](=O)[O-])CC1 | -27.5 |
| O=C(NCCC1=CCCCC1)c1ccc(Cl)c(S(=O)(=O)N2CCOCC2)c1 | -39.6 |
| CCc1cc(=O)[nH]c(-n2[nH]c(-c3ccccc3)cc2=O)n1 | 22.6 |
| CC(=O)c1cc(C#N)c(Oc2ccccc2)nc1C | 9.67 |
| CC(SC(=S)N1CCOCC1)C(=O)O (stereo not shown) | 8.03 |
| CC(C)Cn1c(-c2ccccc2)nc(=S)c2c1CCCC2 | 20.9 |
| CC(CC(=O)N1CCN(C(=O)c2ccccc2)CC1)c1ccccc1 (stereo not shown) | 13.7 |
| CCOC(=O)C(C)n1cnc2c(cnn2-c2ccc(Cl)cc2)c1=O (stereo not shown) | 5.8 |
| Cc1ccc(OCC(=O)OCc2c(C)noc2C)cc1C | -15 |
| Cn1c(=O)c2cn(Cc3ccc(Cl)cc3)cc2n(C)c1=O | -1.75 |
| CN(C)CC(C)(C)CNS(=O)(=O)c1ccc(Cl)s1 | 10.2 |
| Cc1cc(-c2csc(N)n2)c(C)n1Cc1ccccc1 | -2.3 |
| CCN(CC)C(=O)CC(c1cc(OC)c(OC)c(OC)c1)c1c(OC)cc(OC)c2c(-c3ccccc3)cc(=O)oc12 (stereo not shown) | 4.18 |

From article PMC4336329 (PLoS ONE, 2015)
